In PubChem BioAssay AID493005 (National Center for Advancing Translational Sciences (NCATS), 2010):
In all, about 340,000 compounds went through this assay and fewer than 10 were called active. The inconclusive results got no clear call from the source; some entries with a clear call stand among them for comparison. Calls follow the shape of the dose curve; as a rule, active = well fitted inhibition curve with a large enough effect in the main read-out, with a control signal flat (not every such curve was filed as active); inconclusive = small, poorly fitted or top-dose-only effect, or effect the other way, or a change in a side signal; inactive = no such curve, though single readings can be large or run the other way. Potencies beside an inconclusive call are fits to weak or partial responses and may not hold up. A note “side channel” means that the fit belongs to a control or component signal, not to the main read-out.

Target: Tumor susceptibility gene 101 protein (Homo sapiens) (UniProt Q99816)
Sequence of UniProt Q99816 (Q99816 whole entry, looked up): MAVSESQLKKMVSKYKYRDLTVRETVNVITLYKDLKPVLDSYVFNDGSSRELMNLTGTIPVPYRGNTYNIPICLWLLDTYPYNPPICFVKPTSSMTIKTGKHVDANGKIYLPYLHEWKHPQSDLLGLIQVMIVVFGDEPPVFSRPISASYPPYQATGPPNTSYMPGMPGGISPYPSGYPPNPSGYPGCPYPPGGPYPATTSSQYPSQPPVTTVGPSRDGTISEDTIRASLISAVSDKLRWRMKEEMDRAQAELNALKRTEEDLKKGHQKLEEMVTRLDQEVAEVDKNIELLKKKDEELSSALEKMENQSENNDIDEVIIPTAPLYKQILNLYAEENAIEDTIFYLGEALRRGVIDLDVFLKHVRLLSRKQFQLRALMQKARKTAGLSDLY
Assay: qHTS Assay for Iinhibitors of HIV-1 Budding by Blocking the Interaction of PTAP/TSG101
Conditions: Fluorescence polarization, FITC-PTAP peptide / Tsg101 binding; series mostly up to 115 µM
In short: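 Steps: Tsg101 binding domain dispensed (10 uM final), compounds pinned in DMSO, FITC-labeled PTAP-motif peptide added (50 nM final); after 20 min binding at room temperature, polarization measured.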
Potency is read from the fitted curve at half-maximal effect; tags tell the direction and shape of the fitted curve or compound fluorescence and quenching.

| Structure (SMILES) | Potency |
| --- | --- |
| Cn1nc(C(=O)NNC(=O)C(CCC(N)=O)NS(=O)(=O)c2ccc(Cl)cc2)c2ccccc2c1=O (stereo not drawn) | inconclusive: 89.1 µM [fluorescent, side channel, single point] |
| C=CCn1c(SCC(=O)N2CCCCCC2)nc2ccccc2c1=O | inactive |
| CC(C)C[C@H](NC(=O)c1[nH]cnc1C(=O)N[C@@H](C)C(=O)OCc1ccccc1)C(=O)OCc1ccccc1 | inconclusive: 17.8 µM [quencher, side channel, partial curve, poor fit] |
| COc1ccc(-n2c(C)ccc2-c2ccccc2)cn1 | inconclusive: 56.2 µM [fluorescent, side channel, partial curve, poor fit] |
| CNC(=O)c1sc(N2N=C3/C(=C\c4ccccc4)CCCC3C2c2ccccc2)nc1C (stereo not drawn) | inconclusive: 89.1 µM [fluorescent, side channel, partial curve] |
| Cc1ccccc1C(=O)N1CCN(c2ccc(NC(=O)c3ccco3)cc2Cl)CC1 | inactive |
| COc1ccc2c(n1)Sc1nc3ccccc3nc1N2 | inconclusive: 35.5 µM [fluorescent, side channel, partial curve, poor fit] |
| O=c1[nH]ncc2c3ccccc3n(Cc3cccc(Cl)c3)c12 | inconclusive: 56.2 µM [fluorescent, side channel, partial curve, poor fit] |
| CSCC(C)N1CCC(n2nccc2NC(=O)CCCc2ccccc2)CC1 (stereo not drawn) | inconclusive: 79.4 µM [fluorescent, side channel, partial curve, poor fit] |
| CCOC(=O)c1c(/N=C/C2=C(O)CC(C)(C)CC2=O)sc(C)c1C | inconclusive: 89.1 µM [fluorescent, side channel, single point] |
| O=C(CN1CCN(S(=O)(=O)c2ccc(Br)s2)CC1)NC1CCCCC1 | inactive |
| Cc1ccc(N=Nc2c(O)[nH]c3ccc(F)cc23)cc1 | inconclusive: 56.2 µM [fluorescent, side channel, partial curve, poor fit] |
| COC(=O)C1=C(C)N(c2ccccc2)/C(=C/c2ccco2)C1=O | inconclusive: 79.4 µM [fluorescent, side channel, partial curve] |
| CC(C)NC(=O)c1nn2c(C(F)(F)F)cc(-c3ccco3)nc2c1Cl | inconclusive: 56.2 µM [fluorescent, side channel, partial curve, poor fit] |
| CCCCN(CCCC)c1nc2ccccc2nc1C(C#N)C(=O)NCCCOC (stereo not drawn) | inconclusive: 50.1 µM [fluorescent, side channel, partial curve, poor fit] |
| COCCCNC(=O)c1ccc2c3c(onc13)-c1ccccc1C2=O | inconclusive: 56.2 µM [fluorescent, side channel, partial curve, poor fit] |
| Cc1cccc(Nc2nc(N)c([N+](=O)[O-])c(N3CCCC(C)C3)n2)c1 (stereo not drawn) | inconclusive: 39.8 µM [quencher, side channel, partial curve, poor fit] |
| CN(CC(=O)Nc1ccccc1Cl)CC(=O)N1CCc2ccccc21 | inconclusive: 25.1 µM [quencher, side channel, full curve] |
| Cc1ccc2nc3sc(C(=O)N4CCCc5ccccc54)c(N)c3cc2c1 | inconclusive: 79.4 µM [fluorescent, side channel, partial curve, poor fit] |
| COc1cccc(-c2csc(/C(C#N)=C/Nc3cc4oc5ccccc5c4cc3OC)n2)c1 | inconclusive: 56.2 µM [fluorescent, side channel, partial curve, poor fit] |
| COc1cccc2c1C(=O)c1c(O)c3c(c(O)c1C2=O)CC(O)(C(C)=NNC(=O)c1ccc(Cl)c(Cl)c1)CC3OC1CC(N)C(O)C(C)O1 (stereo not drawn) | inconclusive: 15.8 µM [fluorescent, side channel, partial curve, poor fit] |
| CN(C)S(=O)(=O)c1ccc2c(c1)/C(=C/c1cc3c([nH]1)CCCC3)C(=O)N2 | inconclusive: 28.2 µM [fluorescent, side channel, partial curve] |
| CCCn1c(=N)c(S(=O)(=O)c2ccc(F)cc2)cc2c(=O)n3ccccc3nc21 | inactive |
| CC1CCN(C(=O)c2ccc3c(c2)NC(=O)CN3)CC1 | inconclusive: 39.8 µM [fluorescent, side channel, partial curve, poor fit] |
| O=C(/C=C/c1cccnc1)c1ccc(F)c(F)c1 | inactive |
| O=C(NNc1nc2ccccc2s1)C1CC1 | inactive |
| CCOc1ccc2nc3cc(NCc4ccc(OC)cc4)ccc3c(N)c2c1 | inconclusive: 56.2 µM [fluorescent, side channel, partial curve, poor fit] |

| Structure (SMILES) | Potency |
| --- | --- |
| C/C=C(\C)C(=O)OC1[C@H](OC(C)=O)C2(CO)C(CC1(C)C)C1=CCC3C4(C)CCC(O[C@@H]5O[C@H](C(=O)O)[C@@H](O[C@@H]6O[C@H](CO)[C@@H](O)[C@H](O)[C@H]6O)[C@H](O)[C@H]5O[C@H]5O[C@H](CO)[C@@H](O)[C@H](O)[C@H]5O)[C@](C)(CO)C4CCC3(C)[C@]1(C)C[C@H]2O (stereo partly drawn) | inactive |
| O=[n+]1c2c(n([O-])c3cc(F)c(N4CCCC4)cc31)CCCC2 | inconclusive: 56.2 µM [fluorescent, side channel, partial curve, poor fit] |
| CC(OC(=O)/C(C#N)=C/c1ccc(N(C)C)cc1)C(=O)N(C)Cc1ccccc1 (stereo not drawn) | inconclusive: 50.1 µM [fluorescent, side channel, partial curve, poor fit] |
| Cc1nc(N2CCOCC2)nc(OC(C)C)c1[N+](=O)[O-] | inactive |
| CCOC(=O)/C(C#N)=N\Nc1cc(Cl)ccc1OC | inconclusive: 79.4 µM [fluorescent, side channel, partial curve] |
| O=C(Nc1ccc(Cl)cc1)Nc1ccc(S(=O)(=O)Nc2ncccn2)cc1 | inactive |
| O=C(CCN1C(=O)/C(=C/c2cccs2)SC1=S)NNC(=O)c1cccc(O)c1 | inconclusive: 50.1 µM [fluorescent, side channel, partial curve, poor fit] |
| Cc1ccc(NC(=O)CN2C(=O)N/C(=C/c3ccc(C)s3)C2=O)cc1 | inconclusive: 56.2 µM [fluorescent, partial curve, poor fit] |
| N#C/C(=C/c1ccc(N2CCCCCC2)o1)c1cccc(F)c1 | inconclusive: 44.7 µM [fluorescent, side channel, partial curve, poor fit] |
| CN(C)c1ccc(/C=C(/NC(=O)c2ccccc2)C(=O)NCCCn2ccnc2)cc1 | inconclusive: 25.1 µM [fluorescent, side channel, partial curve, poor fit] |
| CC(C)(C)c1ccc(/C=C2\Oc3c(ccc(O)c3CN3CCN(CCO)CC3)C2=O)cc1 | inconclusive: 56.2 µM [fluorescent, side channel, partial curve, poor fit] |
| O/C=c1\ccc2cccc3nc(C(F)(F)F)nc1c23 | inconclusive: 20 µM [fluorescent, side channel, full curve] |
| FC(F)(F)c1cnc(Sc2nc3nccc(-c4ccc(Cl)cc4)n3n2)c(Cl)c1 | inactive |
| CCCCNc1c(-c2ccc(SC(C)CC)cc2)nc2ccccn12 (stereo not drawn) | inconclusive: 35.5 µM [quencher, side channel, partial curve, poor fit] |
| CCCN1CCc2c(sc(NC(=O)c3ccc(S(=O)(=O)N4CCN(C(=O)OCC)CC4)cc3)c2C(N)=O)C1 | inconclusive: 79.4 µM [fluorescent, side channel, partial curve] |
| CCN(CC)c1ccc(/C=C2\C(=N)N3N=C(CC(=O)N4CCOCC4)SC3=NC2=O)cc1 | inconclusive: 44.7 µM [fluorescent, side channel, partial curve, poor fit] |
| Cc1cccc(C(=O)OCC(=O)c2c(C)[nH]c3ccccc23)c1O | inconclusive: 17.8 µM [quencher, side channel, partial curve, poor fit] |
| CC(C)OC(=O)CN1C(=O)S/C(=C/c2ccc(N3CCCCC3)o2)C1=O | inconclusive: 20 µM [fluorescent, side channel, full curve] |
| COc1ccc(C)cc1Nc1n[n+](-c2ccccc2)c(-c2cc([N+](=O)[O-])cc(OC)c2O)s1 | inconclusive: 56.2 µM [fluorescent, side channel, partial curve, poor fit] |
| CCOC(=O)c1cc(-c2ccccc2)nn1Cc1cc(CC)no1 | inactive |
| COCCN(CCOC)Cc1c(O)ccc2c1O/C(=C\c1ccco1)C2=O | inconclusive: 50.1 µM [fluorescent, side channel, partial curve, poor fit] |
| COCCN1C(=O)/C(=C/c2ccc(N3CCCC3)cc2C)SC1=S | inconclusive: 8.91 µM [fluorescent, side channel, full curve, poor fit] |
| CCc1cccc(OCC(=O)N(C)CC(=O)Nc2cccc(F)c2)c1 | inactive |
| c1ccc(C2CC(c3cccs3)=NN2c2ccccc2)cc1 (stereo not drawn) | inconclusive: 100 µM [fluorescent, side channel, partial curve, poor fit] |
| COc1ccc(C2Nc3ccccc3C(=O)N2c2ccccc2)cc1COc1ccccn1 (stereo not drawn) | inactive |
| COc1ccc(/C=C/C=C2\N=C(SC)SC2=O)cc1 | inconclusive: 56.2 µM [fluorescent, side channel, partial curve, poor fit] |
